The list shows a part of the results.
B1: PhoQ; a variant is named by its letters at X, in order, P23837 (parent)
chain: MKKLLRLFFPLSLRVRFLLATAAVVLVLSLAYGMVALIGYSVSFDKTTFRLLRGESNLFYTLAKWENNKLHVELPENIDKQSPTMTLIYDENGQLLWAQRDVPWLMKMIQPDWLKSNGFHEIEADVNDTSLLLSGDHSIQQQLQEVREDDDDAEMTHSVAVNVYPATSRMPKLTIVVVDTIPVELKSSYMVWSWFIYVLSANLLLVIPLLWVAAWWSLRPIEALAKEVRELEEHNRELLNPATTRELTSLVRNLNRLLKSERERYDKYRTTLTDLTHSLKTPLXXLQXXLRSLRSEKMSVSDAEPVMLEQISRISQQIGYYLHRASMRGGTLLSRELHPVAPLLDNLTSALNKVYQRKGVNISLDISPEISFVGEQNDFVEVMGNVLDNACKYCLEFVEISARQTDEHLYIVVEDDGPGIPLSKREVIFDRGQRVDTLRPGQGVGLAVAREITEQYEGKIVAGESMLGGARMEVIFGRQHSAPKDE

Variants of: B1
Test: enrichment ratio after two sorts for PhoP signalling (ratio (wild type AVST 3.29)); higher = more functional
Settings: with PhoP (E. coli)

Variant	enrichment ratio
AWDC	≤ 0.25
YDNT	≤ 0.25
RPWM	≤ 0.25
VYMQ	≤ 0.25
DVTH	≤ 0.25
HHCA	≤ 0.25
PWVS	≤ 0.25
LGKK	≤ 0.25
INSI	≤ 0.25
HKAQ	≤ 0.25
EMAY	≤ 0.25
FVYD	≤ 0.25
FCWM	≤ 0.25
GKCR	≤ 0.25
TWTN	≤ 0.25
HENI	≤ 0.25
GQSA	≤ 0.25
IMWE	≤ 0.25
KPRY	≤ 0.25
DVQW	≤ 0.25
LYGH	≤ 0.25
SKGS	≤ 0.25
HQWQ	≤ 0.25
VETW	≤ 0.25
HKLT	≤ 0.25

Variant	enrichment ratio
KRWY	≤ 0.25
PQWT	≤ 0.25
LVWF	≤ 0.25
DIVG	≤ 0.25
HPQS	≤ 0.25
QFMR	≤ 0.25
PVCE	≤ 0.25
FTMN	2.79
HSKI	≤ 0.25
AHKY	≤ 0.25
MWHF	≤ 0.25
FGTH	≤ 0.25
KDML	≤ 0.25
QMNG	38.7
STRY	≤ 0.25
TTGQ	≤ 0.25
KIVE	≤ 0.25
KIYV	≤ 0.25
HSSI	≤ 0.25
LHQA	≤ 0.25
QEGN	≤ 0.25
SYPR	≤ 0.25
QMWY	≤ 0.25
IHEL	≤ 0.25
RNIL	≤ 0.25

Variant	enrichment ratio
NMLF	≤ 0.25
WPIL	≤ 0.25
FKPY	≤ 0.25
RVWF	≤ 0.25
RNGS	≤ 0.25
TMNN	34
IEFV	≤ 0.25
PHKG	≤ 0.25
PDWD	≤ 0.25
SWQH	≤ 0.25
PLAY	0.252
FVHP	≤ 0.25
SVTK	11.9
LNWI	≤ 0.25
LAIF	≤ 0.25
IWIH	≤ 0.25
TNPR	≤ 0.25
VTIK	≤ 0.25
ITCY	≤ 0.25
YDMY	≤ 0.25
MPMK	≤ 0.25
PYNY	≤ 0.25
EKGT	≤ 0.25
QPVS	≤ 0.25
NVRC	≤ 0.25

Variant	enrichment ratio
LWLW	≤ 0.25
LCFM	≤ 0.25
KVVG	≤ 0.25
YRYC	≤ 0.25
AMDS	≤ 0.25
HLYA	≤ 0.25
LMPN	≤ 0.25
RFDD	≤ 0.25
PVDN	≤ 0.25
DWPI	≤ 0.25
YNVV	≤ 0.25
KAAA	≤ 0.25
WFEL	≤ 0.25
RNQA	≤ 0.25
GHWE	≤ 0.25
VLND	≤ 0.25
PYMV	≤ 0.25
PPKQ	≤ 0.25
CPFY	≤ 0.25
VYRG	≤ 0.25
GQLH	1.67
YFKY	≤ 0.25
VTCK	≤ 0.25
FDLK	≤ 0.25
NISH	≤ 0.25

Variant	enrichment ratio
MDDC	≤ 0.25
QISP	≤ 0.25
YVFC	≤ 0.25
GPMK	≤ 0.25
LMNQ	≤ 0.25
VRPE	≤ 0.25
PASA	≤ 0.25
YDWM	≤ 0.25
IKGE	2.7
DEGL	≤ 0.25
NFQL	≤ 0.25
NGTM	≤ 0.25
MDWD	≤ 0.25
QDAL	≤ 0.25
PYVG	≤ 0.25
ERRA	≤ 0.25
NHDW	≤ 0.25
FTVG	≤ 0.25
YQKS	≤ 0.25
VVFP	≤ 0.25
RCEY	≤ 0.25
HMPG	≤ 0.25
PELT	≤ 0.25
AATC	≤ 0.25
GPRC	≤ 0.25

Variant	enrichment ratio
QPVM	≤ 0.25
RCNT	≤ 0.25
TADW	≤ 0.25
ETAR	≤ 0.25
NPTD	≤ 0.25
LLTA	≤ 0.25
SHLW	≤ 0.25
WSQN	≤ 0.25
MKIC	≤ 0.25
DPAH	≤ 0.25
SSRK	≤ 0.25
VKKI	≤ 0.25
FGTE	≤ 0.25
QAYQ	10.7
DSEE	≤ 0.25
THRM	≤ 0.25
HRCY	≤ 0.25
GQAW	≤ 0.25
DHGD	≤ 0.25
HWQN	≤ 0.25
IRMP	≤ 0.25
SRNH	≤ 0.25
YCVA	≤ 0.25
MSRD	≤ 0.25
DGFD	≤ 0.25

Variant	enrichment ratio
KIKR	≤ 0.25
EDSN	≤ 0.25
SQLV	11.8
TDIK	≤ 0.25
LADE	≤ 0.25
ICRV	≤ 0.25
RDED	≤ 0.25
DSDE	≤ 0.25
NSGN	≤ 0.25
NPLQ	≤ 0.25
ERMC	≤ 0.25
IPQP	≤ 0.25
CHPW	≤ 0.25
ELKG	≤ 0.25
LWCG	≤ 0.25
YDKY	≤ 0.25
YQLV	≤ 0.25
AATA	2.35
YSTD	≤ 0.25
PWFD	≤ 0.25
FEDV	≤ 0.25
TGLL	12.6
MEKH	≤ 0.25
PFCA	≤ 0.25
ENLS	≤ 0.25

Variant	enrichment ratio
RKIC	≤ 0.25
TMQP	≤ 0.25
FETW	≤ 0.25
SSHG	≤ 0.25
NLEF	≤ 0.25
GHQP	≤ 0.25
RDSY	≤ 0.25
PWRV	≤ 0.25
DVWW	≤ 0.25
IYTV	≤ 0.25
AGPK	≤ 0.25
DQIN	≤ 0.25
LWKF	≤ 0.25
PPDY	≤ 0.25
KICN	≤ 0.25
GKFP	≤ 0.25
HHCF	≤ 0.25
RCPK	≤ 0.25
LELN	≤ 0.25
WTQH	≤ 0.25

Reference: a collection of fitness landscapes (doi:10.1126/science.1257360)
